2 compounds from publication PMC5062570 (Nature Communications, 2016) can be followed below.

“And” between values parts separate entries of the source, which are not always exact repeats. Identical values can stand only once. Like-named read-outs stand apart in the source and are kept apart here.

The target of experiment [1] is PF-7802-labelled proteins in ARPE-19 cells (Homo sapiens, UniProt Q6WCQ1). The following applies: protein MPRIP Myosin phosphatase Rho-interacting protein (Q6WCQ1); replicates in separate columns.
UniProt Q6WCQ1, sequence (Q6WCQ1 whole entry): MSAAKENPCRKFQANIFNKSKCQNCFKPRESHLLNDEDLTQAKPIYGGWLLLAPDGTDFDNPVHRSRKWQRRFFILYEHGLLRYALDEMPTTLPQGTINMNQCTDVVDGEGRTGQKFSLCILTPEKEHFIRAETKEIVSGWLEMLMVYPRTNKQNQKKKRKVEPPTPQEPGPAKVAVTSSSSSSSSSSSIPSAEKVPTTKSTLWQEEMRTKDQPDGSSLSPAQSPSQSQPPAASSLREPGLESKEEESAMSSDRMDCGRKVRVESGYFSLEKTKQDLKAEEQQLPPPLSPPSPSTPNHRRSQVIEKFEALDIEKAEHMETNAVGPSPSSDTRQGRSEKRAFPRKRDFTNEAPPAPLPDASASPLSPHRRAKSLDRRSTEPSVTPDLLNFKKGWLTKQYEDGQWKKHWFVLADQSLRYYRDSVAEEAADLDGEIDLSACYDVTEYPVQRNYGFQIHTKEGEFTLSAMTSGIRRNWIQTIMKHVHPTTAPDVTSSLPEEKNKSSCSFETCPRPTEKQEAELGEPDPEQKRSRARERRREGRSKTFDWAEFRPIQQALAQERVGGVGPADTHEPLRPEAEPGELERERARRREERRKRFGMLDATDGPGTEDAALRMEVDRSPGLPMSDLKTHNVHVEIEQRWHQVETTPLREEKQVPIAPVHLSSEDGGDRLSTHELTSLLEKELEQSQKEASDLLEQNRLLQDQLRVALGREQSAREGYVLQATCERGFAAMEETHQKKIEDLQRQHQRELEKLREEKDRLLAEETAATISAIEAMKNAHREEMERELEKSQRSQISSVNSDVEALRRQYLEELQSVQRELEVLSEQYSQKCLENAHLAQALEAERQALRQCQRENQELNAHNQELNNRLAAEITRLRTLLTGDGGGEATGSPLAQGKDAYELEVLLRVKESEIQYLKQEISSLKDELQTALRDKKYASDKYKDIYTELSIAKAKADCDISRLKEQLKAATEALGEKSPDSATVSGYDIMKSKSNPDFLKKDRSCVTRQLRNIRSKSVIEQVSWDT
Experiment [2] addresses PF-7802-labelled proteins in ARPE-19 cells (Homo sapiens, UniProt Q9Y490). Particulars: TLN1 Talin-1 (Q9Y490).
Experiment [3] addresses PF-7802-labelled proteins in ARPE-19 cells (Homo sapiens, UniProt P0DPH8). Particulars: TUBA3D Tubulin alpha-3C/D chain (Q13748).
UniProt P0DPH8, sequence (P0DPH8 whole entry): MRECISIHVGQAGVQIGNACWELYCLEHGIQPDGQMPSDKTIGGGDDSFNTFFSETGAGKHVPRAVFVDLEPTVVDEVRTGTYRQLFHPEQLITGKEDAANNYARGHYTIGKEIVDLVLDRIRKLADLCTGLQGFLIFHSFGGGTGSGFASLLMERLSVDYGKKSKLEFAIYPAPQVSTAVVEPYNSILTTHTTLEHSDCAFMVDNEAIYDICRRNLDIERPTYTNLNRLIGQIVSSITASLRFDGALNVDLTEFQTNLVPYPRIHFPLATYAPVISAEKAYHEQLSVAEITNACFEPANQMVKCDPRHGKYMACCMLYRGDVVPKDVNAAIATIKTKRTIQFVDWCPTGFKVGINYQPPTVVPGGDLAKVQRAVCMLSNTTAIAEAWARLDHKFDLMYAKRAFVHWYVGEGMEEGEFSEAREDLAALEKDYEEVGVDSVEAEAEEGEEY
The target of experiment [4] is PF-7802-labelled proteins in ARPE-19 cells (Homo sapiens, UniProt Q92804). Particulars: TAF15 TATA-binding protein-associated factor 2N (Q92804).
UniProt Q92804, sequence (Q92804 whole entry): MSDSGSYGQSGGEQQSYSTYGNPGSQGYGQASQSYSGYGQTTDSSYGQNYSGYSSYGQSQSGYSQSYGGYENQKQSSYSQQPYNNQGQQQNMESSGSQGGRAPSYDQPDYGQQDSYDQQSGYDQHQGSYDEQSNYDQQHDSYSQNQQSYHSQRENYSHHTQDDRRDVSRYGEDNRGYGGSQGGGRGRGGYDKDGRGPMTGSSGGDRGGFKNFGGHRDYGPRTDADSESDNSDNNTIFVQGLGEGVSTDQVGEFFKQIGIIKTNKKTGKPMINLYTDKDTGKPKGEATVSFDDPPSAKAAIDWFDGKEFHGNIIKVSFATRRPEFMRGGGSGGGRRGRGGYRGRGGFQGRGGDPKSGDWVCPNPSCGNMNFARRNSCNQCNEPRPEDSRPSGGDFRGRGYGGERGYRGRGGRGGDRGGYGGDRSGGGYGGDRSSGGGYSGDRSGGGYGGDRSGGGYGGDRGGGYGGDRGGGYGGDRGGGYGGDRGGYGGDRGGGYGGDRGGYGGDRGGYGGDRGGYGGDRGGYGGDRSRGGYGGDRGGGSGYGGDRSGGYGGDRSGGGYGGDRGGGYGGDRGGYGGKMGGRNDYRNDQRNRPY
The target of experiment [5] is T1, PF-7802-labelled proteins in ARPE-19 cells (Homo sapiens, UniProt P27348).
T1 sequence (P27348 1-245): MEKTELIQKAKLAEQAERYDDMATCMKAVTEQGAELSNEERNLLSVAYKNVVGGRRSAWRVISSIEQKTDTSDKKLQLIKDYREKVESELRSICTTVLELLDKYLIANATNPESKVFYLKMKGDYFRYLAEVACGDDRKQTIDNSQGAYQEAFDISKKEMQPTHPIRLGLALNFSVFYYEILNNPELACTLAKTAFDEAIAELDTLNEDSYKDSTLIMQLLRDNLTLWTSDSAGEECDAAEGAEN
The following applies: for Median SILAC Ratio (Heavy/Light): protein YWHAQ 14-3-3 protein theta (P27348).

Experiment [6] has as its target PF-7802-labelled proteins in ARPE-19 cells (Homo sapiens, UniProt Q00839). The following applies: for Median SILAC Ratio (Heavy/Light): protein HNRNPU Heterogeneous nuclear ribonucleoprotein U (Q00839), one column per replicate.
UniProt Q00839, sequence (Q00839 whole entry): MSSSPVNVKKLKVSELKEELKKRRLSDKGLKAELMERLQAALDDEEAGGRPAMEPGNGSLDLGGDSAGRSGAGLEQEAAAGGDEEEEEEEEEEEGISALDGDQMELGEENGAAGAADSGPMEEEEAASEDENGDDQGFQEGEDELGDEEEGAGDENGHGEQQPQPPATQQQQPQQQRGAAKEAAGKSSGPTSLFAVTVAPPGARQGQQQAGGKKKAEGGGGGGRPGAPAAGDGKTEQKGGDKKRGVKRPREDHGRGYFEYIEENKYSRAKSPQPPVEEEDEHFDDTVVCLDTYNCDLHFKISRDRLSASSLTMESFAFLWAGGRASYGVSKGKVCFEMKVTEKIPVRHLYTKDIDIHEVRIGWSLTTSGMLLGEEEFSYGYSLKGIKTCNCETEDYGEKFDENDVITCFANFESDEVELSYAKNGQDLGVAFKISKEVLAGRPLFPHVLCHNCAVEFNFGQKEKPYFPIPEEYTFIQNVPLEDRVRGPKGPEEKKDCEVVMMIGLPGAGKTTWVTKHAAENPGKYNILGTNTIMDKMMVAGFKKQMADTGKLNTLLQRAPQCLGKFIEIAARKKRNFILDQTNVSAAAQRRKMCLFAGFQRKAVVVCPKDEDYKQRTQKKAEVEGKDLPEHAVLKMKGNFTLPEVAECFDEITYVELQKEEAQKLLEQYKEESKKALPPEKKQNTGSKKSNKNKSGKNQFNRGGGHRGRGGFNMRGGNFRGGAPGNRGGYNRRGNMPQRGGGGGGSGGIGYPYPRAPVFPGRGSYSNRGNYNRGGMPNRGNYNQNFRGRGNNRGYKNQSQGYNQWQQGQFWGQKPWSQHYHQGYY
Experiment [7] concerns the target T2, PF-7802-labelled proteins in ARPE-19 cells (Homo sapiens, UniProt P00387).
T2 sequence (P00387 1-301): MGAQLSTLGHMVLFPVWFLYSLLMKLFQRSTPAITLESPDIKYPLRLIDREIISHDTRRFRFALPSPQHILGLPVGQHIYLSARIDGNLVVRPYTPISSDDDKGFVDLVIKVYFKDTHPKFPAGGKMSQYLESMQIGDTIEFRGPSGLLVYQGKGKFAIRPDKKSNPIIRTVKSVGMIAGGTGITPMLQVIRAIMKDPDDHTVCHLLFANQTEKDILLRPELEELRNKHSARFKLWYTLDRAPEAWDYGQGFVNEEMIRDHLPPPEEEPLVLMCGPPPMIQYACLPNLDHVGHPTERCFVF
The following applies: for Median SILAC Ratio (Heavy/Light): protein CYB5R3 NADH-cytochrome b5 reductase 3 (P00387).

The target of experiment [8] is PF-7802-labelled proteins in ARPE-19 cells (Homo sapiens, UniProt Q9P0K7). Particulars: protein RAI14 Ankycorbin, Q9P0K7.
Experiment [9] concerns the target PF-7802-labelled proteins in ARPE-19 cells (Homo sapiens, UniProt Q13243). Particulars: SRSF5 Serine/arginine-rich splicing factor 5 (Q13243).
UniProt Q13243, sequence (Q13243 whole entry): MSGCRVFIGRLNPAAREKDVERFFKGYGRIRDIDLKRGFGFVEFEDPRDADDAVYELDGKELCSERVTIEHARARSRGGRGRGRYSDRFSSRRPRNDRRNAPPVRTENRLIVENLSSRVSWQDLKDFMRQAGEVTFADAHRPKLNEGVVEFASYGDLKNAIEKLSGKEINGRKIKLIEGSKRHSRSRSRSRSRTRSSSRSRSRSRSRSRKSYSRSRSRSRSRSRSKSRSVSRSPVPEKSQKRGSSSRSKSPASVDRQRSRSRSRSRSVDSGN
In experiment [10] the target is PF-7802-labelled proteins in ARPE-19 cells (Homo sapiens, UniProt P35268). Particulars: protein RPL22 60S ribosomal protein L22, P35268.
Experiment [11] addresses PF-7802-labelled proteins in ARPE-19 cells (Homo sapiens, UniProt P19367). The following applies: protein HK1 Hexokinase-1 (P19367); one column per replicate.
UniProt P19367, sequence (P19367 whole entry): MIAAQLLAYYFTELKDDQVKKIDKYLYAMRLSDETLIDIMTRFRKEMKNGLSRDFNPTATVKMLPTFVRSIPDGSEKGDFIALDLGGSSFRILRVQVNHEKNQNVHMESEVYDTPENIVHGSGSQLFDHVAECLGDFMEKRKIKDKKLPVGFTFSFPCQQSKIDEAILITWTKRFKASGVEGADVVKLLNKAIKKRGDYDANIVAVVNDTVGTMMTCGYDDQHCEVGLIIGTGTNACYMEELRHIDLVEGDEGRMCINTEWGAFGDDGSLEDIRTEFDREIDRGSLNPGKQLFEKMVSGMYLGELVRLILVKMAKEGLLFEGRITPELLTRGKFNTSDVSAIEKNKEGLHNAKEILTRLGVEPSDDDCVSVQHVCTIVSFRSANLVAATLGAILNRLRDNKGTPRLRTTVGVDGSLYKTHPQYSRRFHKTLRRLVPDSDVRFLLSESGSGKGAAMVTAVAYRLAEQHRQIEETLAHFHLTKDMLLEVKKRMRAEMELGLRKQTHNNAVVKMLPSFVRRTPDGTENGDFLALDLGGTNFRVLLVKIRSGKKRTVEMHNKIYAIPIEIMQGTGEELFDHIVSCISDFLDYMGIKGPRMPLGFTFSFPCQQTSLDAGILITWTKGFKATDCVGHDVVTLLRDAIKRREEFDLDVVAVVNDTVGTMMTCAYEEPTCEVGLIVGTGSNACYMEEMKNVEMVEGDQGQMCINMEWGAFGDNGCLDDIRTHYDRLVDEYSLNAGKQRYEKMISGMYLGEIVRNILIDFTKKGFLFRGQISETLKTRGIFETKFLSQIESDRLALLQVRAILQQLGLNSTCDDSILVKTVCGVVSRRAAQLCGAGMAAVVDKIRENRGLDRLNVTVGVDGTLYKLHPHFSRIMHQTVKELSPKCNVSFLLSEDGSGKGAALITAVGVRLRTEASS
For experiment [12], the target named is PF-7802-labelled proteins in ARPE-19 cells (Homo sapiens, UniProt Q16181). Particulars: SEPT7 Septin-7 (Q16181).
UniProt Q16181, sequence (Q16181 whole entry): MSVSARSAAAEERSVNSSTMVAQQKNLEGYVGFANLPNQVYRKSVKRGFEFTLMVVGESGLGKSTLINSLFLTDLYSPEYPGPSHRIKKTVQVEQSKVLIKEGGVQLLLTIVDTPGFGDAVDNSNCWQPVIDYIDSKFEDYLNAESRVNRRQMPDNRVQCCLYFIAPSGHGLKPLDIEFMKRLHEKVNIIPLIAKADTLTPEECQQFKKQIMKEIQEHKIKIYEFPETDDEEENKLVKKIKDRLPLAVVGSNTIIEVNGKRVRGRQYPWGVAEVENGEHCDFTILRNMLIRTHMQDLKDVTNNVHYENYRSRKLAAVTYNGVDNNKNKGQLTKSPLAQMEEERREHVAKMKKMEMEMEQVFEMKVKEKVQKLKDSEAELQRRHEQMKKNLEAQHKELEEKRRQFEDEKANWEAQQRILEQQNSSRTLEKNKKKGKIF
Experiment [13] concerns the target T3, PF-7802-labelled proteins in ARPE-19 cells (Homo sapiens, UniProt P20700).
T3 sequence (P20700 1-586): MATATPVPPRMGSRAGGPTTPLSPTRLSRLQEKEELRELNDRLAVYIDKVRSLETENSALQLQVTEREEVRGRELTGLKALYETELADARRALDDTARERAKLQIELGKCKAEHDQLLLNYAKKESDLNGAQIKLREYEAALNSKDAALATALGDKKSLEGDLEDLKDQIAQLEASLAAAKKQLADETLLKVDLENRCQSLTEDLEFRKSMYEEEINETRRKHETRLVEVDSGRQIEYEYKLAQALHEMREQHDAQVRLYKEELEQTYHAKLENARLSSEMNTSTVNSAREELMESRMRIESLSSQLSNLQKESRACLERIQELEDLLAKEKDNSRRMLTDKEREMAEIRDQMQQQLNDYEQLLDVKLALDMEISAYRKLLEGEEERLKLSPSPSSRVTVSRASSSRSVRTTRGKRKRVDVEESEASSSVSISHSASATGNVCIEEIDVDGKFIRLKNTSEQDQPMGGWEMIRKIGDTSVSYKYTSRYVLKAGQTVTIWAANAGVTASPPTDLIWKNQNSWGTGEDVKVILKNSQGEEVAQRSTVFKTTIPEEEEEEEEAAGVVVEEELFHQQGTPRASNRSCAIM
The following applies: for Median SILAC Ratio (Heavy/Light): protein LMNB1 Lamin-B1 (P20700), replicates in separate columns.

Experiment [14] has as its target PF-7802-labelled proteins in ARPE-19 cells (Homo sapiens, UniProt P54819). The following applies: protein AK2 Adenylate kinase 2, mitochondrial (P54819).
In experiment [15] the target is PF-7802-labelled proteins in ARPE-19 cells (Homo sapiens, UniProt P28331). The following applies: protein NDUFS1 NADH-ubiquinone oxidoreductase 75 kDa subunit, mitochondrial (P28331); replicates in separate columns.
The target of experiment [16] is T4, PF-7802-labelled proteins in ARPE-19 cells (Homo sapiens, UniProt P60660).
T4 sequence (P60660 1-151): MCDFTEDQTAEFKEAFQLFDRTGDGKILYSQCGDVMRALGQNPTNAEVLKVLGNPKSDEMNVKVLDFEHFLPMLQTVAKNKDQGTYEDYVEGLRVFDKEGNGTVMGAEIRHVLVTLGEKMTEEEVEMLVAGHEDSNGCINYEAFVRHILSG
Particulars: for Median SILAC Ratio (Heavy/Light): protein MYL6 Myosin light polypeptide 6 (P60660), replicates in separate columns.

`CNC1CCN(C(=O)C[C@@H](Cc2ccccc2)C(=O)N[C@@H](CSC)C(=O)N[C@@H](CC2CCCCC2)[C@@H](O)C(=O)OC(C)C)CC1` [CP-108671, reference compound]: the “Median SILAC Ratio (Heavy/Light)” value in [1] is 1.15; in experiment [2], 2.133; in experiment [3], 0.9633; in [4], 0.4361; in experiment [5] (replicate R1), 2.0134; in [6] it was 1.133 and 0.747. For the same compound, the “Median SILAC Ratio (Heavy/Light)” value in [7] turned out to be 1.077; in experiment [8], 1.263; in experiment [9], 0.63; in experiment [10] it was 1.377; in experiment [11], 1.139; in [12] it was 1.343. The “Median SILAC Ratio (Heavy/Light)” value in experiment [13] came to 1.104; in experiment [14], 2.186; in experiment [15], 0.9207; in [16], 1.998. Further, the “SILAC ratio (DMSO/CP-108671)” value in experiment [5] (P27348 YWHAQ 14-3-3 protein theta) was 0.50; in experiment [6] (Q00839 HNRNPU Heterogeneous nuclear ribonucleoprotein U), 0.94; in [7] (P00387 CYB5R3 NADH-cytochrome b5 reductase 3) it was 0.93; in experiment [13] (P20700 LMNB1 Lamin-B1), 0.91; in [16] (P60660 MYL6 Myosin light polypeptide 6), 0.50.
On to `Cc1cc([C@H]2C[C@H]3[C@@H](C)SC(N)=N[C@@]3(c3ccc(F)cc3F)CO2)on1` [PF-9283], for which the “Median SILAC Ratio (Heavy/Light)” value in [1] is 1.246; in [2] it was 1.751; in experiment [3], 1.131; in experiment [4], 0.8251 and 1.173; in experiment [5] (replicate R3), 1.45; in experiment [5] (replicate R4), 2.687. Moreover, the “Median SILAC Ratio (Heavy/Light)” value in [6] was 1.286 and 0.7433 and 2.188; in experiment [7], 1.354 and 1.222; in experiment [8] it was 1.413; in [9], 0.633; in experiment [10] it was 1.087 and 0.9147; in [11] it was 1.415. For the same compound, the “Median SILAC Ratio (Heavy/Light)” value is 1.557 in [12]; 1.325 and 3.226 in [13]; 1.796 in experiment [14]; 0.9905 in [15]; 1.895 and 1.122 in experiment [16].
